ChEMBL document CHEMBL1157539, “Thousands of chemical starting points for antimalarial lead identification” (Nature, 2010)
In all, about 13,000 compounds were measured (“IFI”: median about 4, highest 2% from about 17 on). The list shows a part of the results.

assay: GSK_TCMDC: Inhibition Frequency Index (IFI). The number of non-kinase HTS assays where a compound showed > 50 % inhibition, expressed as a percentage of the number of such assays in which the compound was tested (-0 is zero); assay type: functional

| Compound | IFI |
| --- | --- |
| CC[C@H]1CN2CC[C@H]1C[C@H]2[C@H](O)c1cc(-c2cccc(F)c2)nc2ccc(OC)cc12 | 5.44% |
| O=C(c1cc(C(F)(F)F)cc(C(F)(F)F)c1)N1CCC(CCN2CCC3(CC2)C(=O)NCN3c2ccccc2)CC1Cc1ccc(Cl)c(Cl)c1 (stereo not drawn) | 20% |
| COc1ccc(CCNCc2ccc3nc(N)cc(C)c3c2)cc1 | 2.16% |
| CCCCCC(C)C(C)c1cc(O)c2c3c(c(=O)oc2c1)CN(Cc1ccccc1)CC3 (stereo not drawn) | 0.74% |
| O=C(/C=C/c1ccc(O)cc1)NC1CCC(CN2CCC(c3c[nH]c4ccccc34)CC2)CC1 (stereo not drawn) | 5.56% |
| COc1ccc(N(c2nc(-c3cc(Cl)ccc3Cl)cs2)C2CCNCC2)cc1 | 23.1% |
| O=c1c2ccccc2nc(/C=C/c2ccc([N+](=O)[O-])cc2)n1-c1ccccn1 | -0% |
| O=C(/C=C/c1ccc(F)c(C(F)(F)F)c1)N1CCC(CN2CCC(c3c[nH]c4ccccc34)CC2)CC1 | 2.16% |
| O=C(/C=C/c1cc(F)c(F)cc1F)N1CCC(CN2CCC(c3c[nH]c4ccccc34)CC2)CC1 | 3.57% |
| CCC1CN2CCc3cc(OC)c(OC)cc3C2CC1CC1NCCc2cc(OC)c(OC)cc21 (stereo not drawn) | 8.96% |
| CCN1CCC2(c3cccc(OC)c3)Cc3nc4ccccc4c(-c4ccccc4)c3CC2C1 (stereo not drawn) | 3.62% |
| COC(=O)c1ccc(CC(C)NCC(O)c2cccc(SC(F)(F)F)c2)cc1 (stereo not drawn) | 5% |
| CCC1(C)N=C(N)N=C(N)N1c1ccc(Cl)cc1 (stereo not drawn) | -0% |
| O=P(O)(O)Oc1c(Br)cc(Br)cc1-c1cc(Br)cc(Br)c1O | 6.73% |
| CCOc1ccc(Br)cc1/C=C/C(=O)Nc1ccc2c(c1)C1CCC2N1C (stereo not drawn) | 10.2% |
| COc1ccc(CC(C)NCC(O)c2cccc(C(F)(F)F)c2)cc1F (stereo not drawn) | 4.38% |
| CN(C)c1cccc(NC(=O)N[C@H]2N=C(c3ccccc3)c3ccccc3N(CC(=O)N3CCCC3)C2=O)c1 | 3.2% |
| OC1(c2ccc(Cl)c(C(F)(F)F)c2)CCN(CCOC2c3ccccc3CSc3ccc(Cl)cc32)CC1 (stereo not drawn) | 8.22% |
| COCCNCc1cccc(-c2ccc(CN(C(=O)Nc3ccccc3)C3CCN(Cc4ccccc4)CC3)cc2)c1 | 6.43% |
| CC(C)/C(=C(/F)CN1C(=O)C(NC(=O)c2cc3ccccc3[nH]2)C(=O)N(c2ccccc2)c2ccccc21)c1ccccc1 (stereo not drawn) | -0% |
| Cc1csc(NC2=NCCN2)n1 | 0.72% |
| Cc1ccccc1C1=CCN(CCCN2c3ccccc3Sc3ccc(Cl)cc32)CC1 | 4.86% |

| Compound | IFI |
| --- | --- |
| Cc1ccc(CC(C)NCC(O)c2cccc(C(F)(F)F)c2)cc1F (stereo not drawn) | 7.3% |
| CC(=O)N(Cc1cccc(-c2cccc(CNCCc3ccccc3)c2)c1)C1CCN(Cc2ccccc2)CC1 | 5.22% |
| CC1=CC(=O)[C@@H](O)[C@]2(C)[C@H]3[C@@]4(O)OC[C@@]35[C@@H](C[C@@H]12)OC(=O)C[C@H]5[C@@H](C)[C@H]4O | 7.19% |
| c1ccc2c(NCCCCCCCCCNc3c4ccccc4nc4ccccc34)c3ccccc3nc2c1 | 9.77% |
| COc1ccc(O)c(CN2CCN(c3cc(C)ccc3C)CC2)c1 | 0.92% |
| COC(=O)/C=C/C(=O)N[C@@H]1CC[C@@]2(O)[C@H]3Cc4ccc(O)c5c4[C@@]2(CCN3CC2CC2)[C@H]1O5 | 0.76% |
| COC(=O)c1ccc(CC(C)NCC(O)c2cccc(C(F)(F)F)c2)cc1C (stereo not drawn) | 0.74% |
| CC(=O)C1(c2ccccc2)CCN(CCC2(c3ccc(Cl)c(Cl)c3)CN(C(=O)C3CCCC3)CCO2)CC1 (stereo not drawn) | 6.04% |
| CNCCCCCCc1ccc(CC(C)NCC(O)c2cccc(Cl)c2)cc1 (stereo not drawn) | 7.97% |
| CC[C@H]1CN2CC[C@@H]1C[C@H]2[C@H](O)c1cc(N2CCOCC2)nc2ccc(OC)cc12 | -0% |
| COc1ccccc1CC(C)NCC(O)c1cccc(Cl)c1 (stereo not drawn) | 3.68% |
| CCN1CC=C(c2c[nH]c3ccccc23)CC1 | 0.91% |
| c1ccc(C(OCCC2CCN(Cc3cccc4cccnc34)CC2)c2ccccc2)cc1 | 3.1% |
| COC(=O)C(C)(C)c1ccc(CC(C)NCC(O)c2cccc(C(F)(F)F)c2)cc1 (stereo not drawn) | 8.82% |
| CC(=O)C1(c2ccccc2)CCN(CCC2(c3ccc(Cl)c(Cl)c3)CN(C(=O)c3cccc(Cl)c3)CCO2)CC1 (stereo not drawn) | 4.83% |
| COc1ccc(CN2CCN(CCOC(c3ccccc3)c3ccc(Cl)cc3)CC2)c(O)c1 (stereo not drawn) | 3.52% |
| Cc1cccc2c(C3CCN(CC4CCC(NC(=O)/C=C/c5ccc(Cl)c(Cl)c5)CC4)CC3)c[nH]c12 (stereo not drawn) | 9.86% |
| CCCCCCCc1cc(O)c2c3c(c(=O)oc2c1)CN(C)CC3 | -0% |
| COc1ccc2[nH]cc(C3CCN(Cc4ccc(NC(=O)c5ccc(-c6ccccc6)cc5)cc4)CC3)c2c1 | 5.63% |
| Cc1cc(NC(=O)[C@@H](Nc2ccc(C#N)c3ccccc23)C2CCCCC2)ccc1F | 3.85% |
| O=S(=O)(NC1CCC(CN2CCC(c3c[nH]c4ccccc34)CC2)CC1)c1ccc(Cl)c(Cl)c1 (stereo not drawn) | 4.23% |
